# The whole screen tested about 150,000 compounds, of which about 540 (0.36%) showed an effect of 50% or more. The list shows a part of the results.
# Tested on: Plasmodium falciparum
# Experiment: Primary screen in NF54 nanoGlo assay, in single point, at 2uM, 72h; a lower Z score goes with more inhibition
# Type: functional, Erythrocyte
# Conditions: timepoint 72 hour
Structure (SMILES),% Inhibition,Z score
Cc1nccn1-c1ccc(F)cc1CNCc1cccc2cn[nH]c12,-14%,1.65
COC[C@H](C)n1c(=O)ncn1-c1cc(C)ccc1C,-3%,0.44
Cc1nc(N2CCC[C@H](C(=O)NCc3ccccn3)C2)c2c(C)c(C)oc2n1,5%,-0.53
Cc1ccccc1CNC(=O)[C@H]1CCCN(c2ccnc(-c3cccc(F)c3)n2)C1,-12%,1.4
CCCN(c1ncc(Cl)cn1)C1CC1,-16%,1.63
Cn1cccc1CN1CC[C@H]2CN(Cc3ccccc3)C[C@@]2(CO)C1,-7%,1.18
Fc1cc(Cl)cnc1OC[C@H]1CCCOC1,1%,-0.15
C[C@@H](c1ccccn1)N(C)Cc1cccc(-c2ccccc2)c1,-7%,1.01
c1ccc(CN2C3CCC2CN(CCC2OCCO2)CC3)cc1 (stereo not given),-4%,0.49
COc1ccc(NC(=O)c2c(F)c(F)c3c(c2F)N(Cc2cccnc2)CCS3(=O)=O)cc1,-9%,1.22
Cc1c(COc2ccccc2)cccc1NCc1nnc(C2CC2)o1,-3%,0.53
Cc1cc(C(=O)N2CCC[C@@]3(CCC(=O)N(CCc4c[nH]cn4)C3)C2)[nH]n1,-10%,1.61
CCOc1ccc(C(=O)N2CCC[C@H](Oc3nc(C)cc(C)n3)C2)cc1OCC,-1%,0.18
CCCC(CCC)NCC[C@H]1CCCO1,-5%,0.52
CCCNC(=O)CCNC(=O)Nc1nn(C)cc1-c1ccccc1,-1%,0.11
Cc1nn(C)cc1[C@H]1OCC[C@@H]1NC(=O)Nc1ccccc1C(C)(F)F,-3%,0.39
CCN(CC)C(=O)[C@@H]1CCCN1C(=O)Nc1cn[nH]c1,-14%,2.77
CCN1CCCN(C(=O)Nc2cc([C@H]3CCCOC3)nn2C)CC1=O,-1%,0.16
Cc1ccc(-c2noc(CCCC(=O)N3CCC[C@H](c4nc(C5CCOCC5)no4)C3)n2)cc1,-4%,0.51
Cc1cnc(C)c(NCc2cccc(-c3nnc[nH]3)c2)n1,-6%,0.76
CCCOc1ccccc1CCNC(=O)[C@@H](C)Cn1cccn1,-8%,1.23
O=C1OC(C(=O)NC2CCCc3ccccc32)Cc2ccccc21 (stereo not given),2%,-0.25
CN(Cc1ccc(-n2cccn2)cc1)Cc1nc(Cc2cccc(F)c2)no1,-7%,0.88
Cc1cccc2c1CC(C)(C)N(C(=O)c1cn(CC3CC3)nn1)C2,-1%,0.24
Cc1cc(Br)cc(C(=O)NCC(C)(C)CO)c1,7%,-1.26
FC(F)(F)c1cnc([C@H]2CCCN(Cc3csnn3)C2)[nH]1,0%,0.09
CCn1cc(S(=O)(=O)NCCc2c[nH]c3ccc(F)cc23)cn1,-10%,1.48
O=C(Nc1cccc(Cl)c1)c1ccnn1C1CCOCC1,2%,-0.43

Structure (SMILES),% Inhibition,Z score
O=C(c1c[nH]nc1-c1ccccn1)N1CC(c2ccccc2F)C1,-24%,4.72
CN(CC1(C)COC1)C(=O)NCc1cccc2[nH]ccc12,-15%,1.83
CCOC(=O)[C@H]1CCCN(CC(=O)N2CCNC2=O)C1,-6%,0.65
C[C@@]1(C(=O)OCCn2cccn2)CCCN1C(=O)c1ccccc1,-1%,0.11
O=C(c1cn[nH]c1)N1CCC(CC2CC2)(c2noc(-c3ccncc3)n2)CC1,-5%,0.65
CCn1ccnc1[C@H]1CCCN(C(=O)C2CCCCC2)C1,-21%,2.14
CC[C@H](C)NC(=O)CCN(CCOC)c1nc(-c2ccco2)nc2ccccc12,-8%,1.1
CCCCn1nc(C2CCOCC2)nc1CCC(=O)N(C)C,14%,-1.78
CCc1cnc(NC(=O)C[C@H]2CCS(=O)(=O)C2)s1,-9%,1.88
c1cc(CNC[C@H]2COC3(CCOCC3)O2)cs1,-8%,1.23
Cc1nnccc1NC(=O)NCC[C@@H]1OCCc2ccccc21,0%,0.03
Cc1cccc(S(=O)(=O)N2CCC(OCc3nc(C)no3)CC2)c1,-11%,1.39
O=C(NC1C2CC1N(C(=O)Cc1cccc3ccccc13)C2)c1sccc1F (stereo not given),-3%,0.4
O[C@H](c1ncc[nH]1)C1CCN(Cc2ccccc2C2CC2)CC1,4%,-0.75
CC(C)c1nncn1CCNC(=O)c1cn(C)c(=O)[nH]1,-2%,0.43
Cc1noc(C)c1S(=O)(=O)N1CCC[C@H](c2nnc(C(=O)Nc3ccccc3)s2)C1,-8%,1.14
O=C(CC[C@@H]1CNC(=O)[C@@H]2C[C@H](NC(=O)Nc3cccc(Cl)c3)CN12)NCc1cccnc1,-9%,1.14
CCCO[C@H]1CCCN(c2ncc(C#N)c(N)n2)C1,-13%,2.4
COc1ccc(CN(C)C(=O)C[C@]2(c3cccc(F)c3)CC(=O)N(C3CCCC3)C2=O)cc1OC,3%,-0.46
CCCCNC(=O)CN(C)Cc1nnc(C)s1,2%,-0.21
OC(c1cccnc1)c1nccn1CCOC1CC1(F)F (stereo not given),21%,-2.64
c1cc(-c2noc(CC3CCC4CC34)n2)ncn1 (stereo not given),-4%,0.76
CCCOc1ccccc1[C@H](C)Nc1nc(-c2cccnc2)nc2c1CNC2,4%,-0.56
Cc1cc(C(=O)N2CCOCC2)c(C)s1,-3%,0.42
COc1ccc([C@H]2OCC[C@@H]2NCc2cnc(N3CCN(C)CC3)nc2)cn1,11%,-1.22
CC(=O)N1c2nc(-c3ccco3)nn2C2(CCCCC2)[C@@H]2CCCC[C@@H]21,-25%,2.24
Cc1cnn(C2CN(Cc3cn4c(C)cccc4n3)C2)c1,8%,-1.25
